Reference: PubChem BioAssay AID686978 (National Center for Advancing Translational Sciences (NCATS), 2013)
“And” between values parts separate entries of the source, which are not always exact repeats. Equal values may be shown once. The campaign covered roughly 420,000 compounds. About 64,000 (15%) were called active. Inconclusive means that the source gave no clear call. Such entries were picked first, then a sample of the others. Calls come from the whole dose curve; as a rule, active = well fitted inhibition curve with a large enough effect; inconclusive = small, poorly fitted or top-dose-only effect; inactive = flat fitted curve, though single readings scatter. No potency is given beside an inconclusive call; the fits are too rough.
% is set by controls: 0 for no effect and ±100 for the full control effect; potency is the fitted concentration of half-maximal effect; tags give direction and shape of the fitted curve.

Experiment: qHTS for Inhibitors of human tyrosyl-DNA phosphodiesterase 1 (TDP1): qHTS in cells in absence of CPT; note: nearly all actives have a fitted effect of over 55% in size
Details: DT40 Tdp1-/- hTDP1 cells, no CPT, ATP luminescence, 48 h; activity change, negative = growth inhibition: at 46.2 µM (top of the series) unless noted
Method in brief: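 Cells were dispensed at 400 per well, compounds added by pin tool, plates incubated ≥48 hr at 37 °C, then CellTiter-Glo added for 30 min at room temperature before luminescence reading. Line: DT40 Tdp1-/- complemented with hTDP1; camptothecin omitted.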
With COc1ccc(O)c(C(=O)c2cnn(C(=O)c3cccc(N(C)C)c3)c2)c1 the Potency was active: 18.4 µM. For Cc1ccc(S(=O)(=O)N2[C@@H](CO)CO[C@H]2CC(=O)c2cccc3ccccc23)cc1, the Potency was inconclusive [inhibitor, single point]. For CC(C)NC(=O)N(C)C[C@H]1Oc2ccc(NS(=O)(=O)c3ccccc3)cc2C(=O)N([C@H](C)CO)C[C@H]1C, the Potency was “inactive”. In the case of Cc1ccc(-n2ncc3c(NC(C)c4ccccc4)ncnc32)cc1 (configuration not stated), the Potency is reported as inconclusive [inhibitor, partial curve]. With c1ccc(C(c2ccccc2)N2CCN(Cc3nnnn3C3CCCC3)CC2)cc1 the Potency was active: 16.4 µM. For CC(C)COc1ccc(C(=O)N/C(=C/c2cccc([N+](=O)[O-])c2)C(=O)O)cc1, the Potency was “inactive”. With O=C(COc1ccccc1)Nc1ccc(N2CCN(C(=O)c3ccco3)CC2)cc1 the Potency was “inactive”. For C1=C(c2cn(-c3nc4ccccc4s3)nn2)CCCC1, the Potency was inconclusive [inhibitor, single point]. With O=C(OCc1ccc(C(=O)c2ccccc2)cc1)c1cccc(-c2nnc(-c3ccccc3)o2)c1 the Potency was inconclusive [inhibitor, single point]. In the case of Cc1ccc2oc(=O)cc(/C=C/c3ccccc3)c2c1, the Potency is reported as inconclusive [inhibitor, single point]. In the case of CC1CCC(NC(=O)COC(=O)c2n[nH]c(=O)c3ccccc23)CC1 (configuration not stated), the Potency is reported as “inactive”. For CN(c1ccc(F)cc1)S(=O)(=O)c1ccc(Cl)c(C(=O)OCC(=O)NCc2ccco2)c1, the activity change, negative = growth inhibition was inconclusive: -33.1% [inhibitor]. In the case of CCc1ccc(CNC(=O)c2cc3n(n2)CCCN(Cc2ccccc2)C3=O)cc1, the Potency is reported as inconclusive [inhibitor, single point]. With Cc1cc(-c2cn3ccccc3n2)c(C)n1-c1ccccc1 the Potency was active: 16.4 µM. With CC(C)C(C)(C#N)NC(=O)CSc1nnc(-c2ccncc2)n1Cc1ccccc1 (configuration not stated) the Potency was inconclusive [inhibitor, single point]. With O=C1CCCN1c1ccc(N2CCCC2=O)cc1 the Potency was “inactive”. In the case of Nc1nc(NCc2ccccc2)nc(Nc2cccc(F)c2)c1[N+](=O)[O-], the Potency is reported as inconclusive [inhibitor, single point]. With COc1cc(CCC(=O)N2CCN(c3ccccc3)CC2)cc(OC)c1OC the Potency was inconclusive [inhibitor, single point]. For O=C1C=C(Nc2ccccc2)c2ccccc2C1=O, the Potency was active: 4.61 µM. In the case of O=C(Cc1c(F)cccc1Cl)NCc1cccnc1, the Potency is reported as “inactive”. With COc1cccc(/C=N/Nc2ccc(Cl)nn2)c1 the Potency was inconclusive [inhibitor, single point]. For O=C(O)CCSc1nc2ccccc2c(=O)[nH]1, the Potency was “inactive”. With Cc1ccc2c(C)nc(SC(C(=O)c3ccccc3)c3ccccc3)nc2c1 (configuration not stated) the Potency was inconclusive [inhibitor, single point]. With CCOc1cc(C=C(C(=O)OC)C(=O)OC)ccc1OCc1ccc([N+](=O)[O-])cc1 the Potency was active: 11.6 µM. For Clc1ccccc1-c1ccc2ncnc(NCc3cccnc3)c2c1, the Potency was inconclusive [inhibitor, single point]. For CCCCOc1ccc(C(O)C(CN2CCCCC2)c2ccccc2)cc1 (configuration not stated), the Potency was active: 23.1 µM. In the case of Cc1csc(NC(=O)CCC(=O)N(CC(=O)NC2CCCCC2)c2ccccc2)n1, the Potency is reported as “inactive”. With COc1ccc(Nc2nc(N)nc(CN3CCN(c4ccc(F)cc4)CC3)n2)cc1 the Potency was active: 14.6 µM. In the case of Cc1ccc(NC(=O)NCC2CCN(Cc3cc(C)ccc3Cl)CC2)c(C)c1, the Potency is reported as inconclusive [inhibitor, single point]. For C=CCNC(=S)Nc1ccc(C)c(S(=O)(=O)N2CCCCC2)c1, the Potency was “inactive”. For CCCNc1c(NS(=O)(=O)c2ccc(Br)cc2)c(=O)oc2ccccc12, the Potency was inconclusive [inhibitor, single point]. For Cc1ccc2ccc3ccc(C)nc3c2n1, the Potency was active: 0.146 µM. In the case of Cc1cccc(NC(=O)CSc2ncc(-c3ccccc3)[nH]2)c1C, the Potency is reported as inconclusive [inhibitor, full curve]. With COc1cccc(CN(C)C(=O)CCN=C2NS(=O)(=O)c3ccccc32)c1 the Potency was “inactive”. With Cc1cccn2c(=O)nc(SCC(=O)NCc3ccc(F)cc3)nc12 the Potency was “inactive”. With CC(=O)Nc1ccc(S(=O)(=O)N(Cc2ccco2)Cc2cc3ccccc3[nH]c2=O)cc1 the Potency was inconclusive [inhibitor, partial curve, poor fit]. With O=C(c1ccccc1F)N1c2ncnn2C2(CCCCC2)[C@@H]2CCCC[C@@H]21 the Potency was inconclusive [inhibitor, single point]. In the case of Cc1ccc(S(=O)(=O)N2C[C@@H](C)[C@]3(C2)[C@H](O)[C@H](OC(=O)Nc2c(C)noc2C)C[C@H]2C(=O)N(c4ccccc4)C(=O)[C@H]23)cc1, the Potency is reported as “inactive”. For Brc1ccc2[nH]c3c(c2c1)CCC3, the Potency was “inactive”. With CCOc1ccccc1N1CCN(C(=O)c2ccc(Cl)c(S(=O)(=O)N3CCCCC3)c2)CC1 the Potency was inconclusive [inhibitor, single point]. In the case of COc1cc(C(CCN2CCCC(C)C2)c2c(OC)cc(OC)c3c2OC(=O)CC3c2ccc(N(C)C)cc2)cc(OC)c1OC (configuration not stated), the Potency is reported as inconclusive [inhibitor, single point]. In the case of Cc1onc(-c2c(Cl)cccc2Cl)c1C(=O)NNc1ccccc1, the Potency is reported as inconclusive [inhibitor, single point]. With COc1ccc(NC(=O)c2ccc(=O)[nH]c2)cc1S(=O)(=O)N1CCOCC1 the Potency was “inactive”. For COc1ccc(C(C)(C)C)cc1NC(=O)C1C2C=CC(C2)C1C(=O)O (configuration not stated), the Potency was inconclusive [inhibitor, single point]. For Cc1c(C)n(Cc2ccc(F)cc2)c2ccc(C(=O)N3CCN(c4ccc(F)cc4)CC3)cc12, the Potency was active: 23.1 µM. With O=C1OC(c2ccccc2)=CC1=Cc1ccccc1O the Potency was inconclusive [inhibitor, single point]. With COc1ccc(C2=C(C)C(N3CCC(C(=O)Nc4ccccc4F)CC3)=NS2(=O)=O)cc1 the Potency was inconclusive [inhibitor, single point]. For COc1ccccc1NC(=O)C(=O)N/N=C/c1ccc([N+](=O)[O-])s1, the Potency was inconclusive [inhibitor, partial curve]. For Cc1cc(NC(=O)CSc2nc(C)c(C)n2CC(C)C)no1, the Potency was inconclusive [inhibitor, single point]. For COC(=O)C1=CN(c2ccc(C(C)(C)C)cc2)C(N)=C(C#N)C1c1ccc(OC)cc1 (configuration not stated), the Potency was inconclusive [inhibitor, single point]. With CCOc1ccc2oc(=O)cc(CN3CCN(C(=O)c4ccc(OC)c(OC)c4)CC3)c2c1 the Potency was inconclusive [inhibitor, single point]. For COc1cccc(-c2sc3ccc(OC)cc3c2C#CCCO)c1, the Potency was inconclusive [inhibitor, single point]. In the case of Cc1ccc(CN(Cc2ccco2)C(=S)NCC(=O)NCc2cccnc2)cc1, the Potency is reported as inconclusive [inhibitor, single point]. In the case of COc1ccc(C(=O)NCCN(C)C)c2nc3ccccc3cc12, the Potency is reported as active: 0.164 µM. For Nc1cc(C(=O)OCC(=O)Nc2cccc(S(=O)(=O)N3CCOCC3)c2)ccc1Cl, the Potency was “inactive”. With O=[N+]([O-])c1ccc(NN=C(Oc2ccccc2)c2ccc([N+](=O)[O-])cc2)cc1 the Potency was inconclusive [inhibitor, partial curve]. In the case of COC(=O)CSC1=C(C#N)C(c2cccc(OC)c2)CC(=O)N1 (configuration not stated), the Potency is reported as inconclusive [inhibitor, single point]. For CCc1nc2ccccc2c(C(=O)OCC(=O)N2CC(C)OC(C)C2)c1C (configuration not stated), the Potency was inconclusive [inhibitor, single point]. In the case of O=C(O)CCCNC(=O)c1ccccn1, the Potency is reported as “inactive”. In the case of Cc1cc(NC(=O)c2ccccc2)n(-c2nc3ccccc3[nH]2)n1, the Potency is reported as “inactive”. For CS(=O)(=O)N1CCN(c2ccc(NC(=O)COc3ccccc3[N+](=O)[O-])cc2)CC1, the Potency was inconclusive [inhibitor, partial curve]. For COc1ccccc1CCNC(=O)Cc1ccc(NC(=O)N2CCSc3ncccc32)cc1, the Potency was inconclusive [inhibitor, single point]. For COc1ccc(C2CC(c3ccc(Cl)cc3Cl)Nc3nc(N)nn32)cc1 (configuration not stated), the Potency was inconclusive [inhibitor, partial curve]. For CCOc1ccc(C(=O)NC2CCN(S(C)(=O)=O)CC2)cc1, the Potency was “inactive”. For CC1(COS(N)(=O)=O)CCCCC1, the Potency was “inactive”. In the case of Cc1onc(-c2ccc3c(c2)OCO3)c1-c1ccc2[nH]ccc2c1, the Potency is reported as active: 12.6 µM and active: 16.4 µM. With Cc1ccc2oc(=O)ccc2c1 the Potency was “inactive”. For O=C(NNC(=O)c1ccccc1F)c1ccc(-c2ccc(Cl)cc2)o1, the Potency was inconclusive [inhibitor, single point]. In the case of COc1ccccc1CNC(=O)c1cc2c(=O)oc3ccc(C)cc3c2s1, the Potency is reported as inconclusive [inhibitor, single point]. For COc1ccc([C@@H]2CC=C(C(=O)O)[C@H](c3ccc(Cl)cc3)N2S(=O)(=O)c2ccc(Cl)cc2)cc1, the Potency was “inactive”. In the case of Cc1sc2nc(-c3cccnc3)nc(Cl)c2c1-c1ccccc1, the Potency is reported as “inactive”. With N#Cc1ccc(-c2csc(NNC(=O)c3ccccc3)n2)cc1 the Potency was inconclusive [inhibitor, single point].
